# Measurements from the supplement of paper PMC9174493.
# This is one part of the list. Single values of this set are uncertain. Values with irradiation are relative to irradiated vehicle.
# Experiments:
# A549-Dual [1] = test: NF-kB reporter (SEAP) activity, viability-corrected, relative to vehicle (fold change vs vehicle); higher = more activation of STING-IRF / NF-kB immune response reporter; conditions: 10 µM
# A549-Dual [2] = test: ISRE reporter (Lucia luciferase) activity, viability-corrected, relative to vehicle (fold change vs vehicle); higher = more activation of STING-IRF / NF-kB immune response reporter; conditions: 10 µM
# 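For NF-kB reporter (SEAP) activity, viability-corrected, relative to vehicle in this document: viability correction based on the alamar blue assay, with concentrations leaving 10% survival or less dropped.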
Compound,NF-kB reporter (A549-Dual [1]; irradiation: 8 Gy/4 fr),NF-kB reporter (A549-Dual [1]; irradiation: none),ISRE reporter (A549-Dual [2]; irradiation: 8 Gy/4 fr),ISRE reporter (A549-Dual [2]; irradiation: none)
CCCOc1ccc(S(=O)(=O)NCCC2CCCN2C)cc1-c1nc(=O)c2c([nH]1)c(CCC)nn2C (stereo not drawn) [Udenafil],0.701,0.751,0.926,1.13
CN(C)CCCN1c2ccccc2CCc2ccc(Cl)cc21.Cl [Clomipramine HCl],0.619,0.858,0.617,1
CC(=O)O.CCC(C)C(NC(=O)C(Cc1ccc(O)cc1)NC(=O)C(NC(=O)C(CCCNC(=N)N)NC(=O)C(N)CC(=O)O)C(C)C)C(=O)NC(Cc1c[nH]cn1)C(=O)N1CCCC1C(=O)NC(Cc1ccccc1)C(=O)O (stereo not drawn) [Angiotensin II human Acetate],0.779,1.24,0.733,0.996
CC(C)N1CCN(c2ccc(OCC3COC(Cn4cncn4)(c4ccc(Cl)cc4Cl)O3)cc2)CC1 (stereo not drawn) [Terconazole],0.818,0.877,0.865,1.77
Cc1onc(-c2ccccc2)c1C(=O)NC1C(=O)N2C1SC(C)(C)C2C(=O)[O-].O.[Na+] (stereo not drawn) [Oxacillin sodium monohydrate],0.993,0.976,0.892,1.04
CC(C)NCC(O)COc1cccc2[nH]c3ccccc3c12 (stereo not drawn) [Carazolol],1.16,1.4,1.64,1.58
CCOC(=O)n1ccn(C)c1=S [Carbimazole],0.829,0.949,0.791,0.803
O=C(CS(=O)Cc1ccco1)NC/C=C\COc1cc(CN2CCCCC2)ccn1 (stereo not drawn) [Lafutidine],0.893,1.01,0.87,0.842
Cc1ccccc1C(OCCN(C)C)c1ccccc1.O=C(O)CC(O)(CC(=O)O)C(=O)O (stereo not drawn) [Orphenadrine Citrate],0.706,0.796,0.857,0.838
C=CC1=C(C(=O)O)N2C(=O)C(NC(=O)/C(=N\OCC(=O)O)c3csc(N)n3)C2SC1 (stereo not drawn) [Cefixime],0.81,0.902,0.764,0.757
Cl.Clc1ccc(CCCOCCCN2CCCCC2)cc1 [Pitolisant hydrochloride],0.835,0.806,0.869,0.903
CC(=O)C1CCC2C3CC=C4CC(O)CCC4(C)C3CCC12C (stereo not drawn) [Pregnenolone],0.787,0.838,0.786,0.694
COC1/C=C/OC2(C)Oc3c(C)c(O)c4c(O)c(c5c(nc6cc(C)ccn65)c4c3C2=O)NC(=O)/C(C)=C\C=C\C(C)C(O)C(C)C(O)C(C)C(OC(C)=O)C1C (stereo not drawn) [Rifaximin],0.809,1.05,0.932,1.15
CN(C)CCc1c[nH]c2ccc(Cn3cncn3)cc12.O=C(O)c1ccccc1 [Rizatriptan Benzoate],0.819,1.18,0.844,1.01
Nc1ncnc2nc[nH]c12.Nc1ncnc2nc[nH]c12.O=S(=O)(O)O [Adenine sulfate],1.13,0.832,1.12,0.786
CN(C)CC(c1ccc(O)cc1)C1(O)CCCCC1.O=C(O)CCC(=O)O (stereo not drawn) [Desvenlafaxine Succinate],0.94,1.45,0.988,1.11
CC1(C)NC(=O)N(c2ccc([N+](=O)[O-])c(C(F)(F)F)c2)C1=O [Nilutamide],0.62,1.13,0.412,0.636
O=C(O)c1c[nH]c2ccccc12 [Indole-3-carboxylic acid],0.857,0.561,0.843,0.476
CC(Cc1ccc(O)c(O)c1)C(C)Cc1ccc(O)c(O)c1 (stereo not drawn) [Nordihydroguaiaretic acid (NDGA)],0.775,0.999,0.952,0.708
CC(C)NCC(O)c1ccc(O)c(O)c1.CC(C)NCC(O)c1ccc(O)c(O)c1.O.O.O=S(=O)(O)O (stereo not drawn) [Isoproterenol sulfate dihydrate],1.15,1.94,0.977,1.09
CC(C)NCC(O)c1cc(O)cc(O)c1.CC(C)NCC(O)c1cc(O)cc(O)c1.O=S(=O)(O)O (stereo not drawn) [Metaproterenol Sulfate],0.999,0.948,0.975,0.713
CCN(CC)Cc1cc(Nc2ccnc3cc(Cl)ccc23)ccc1O.Cl.Cl.O.O [Amodiaquine dihydrochloride dihydrate],1.29,1.08,1.53,1.39
CC1/C=C/C=C/C=C/C=C/C=C/C=C/C=C/C(OC2OC(C)C(O)C(N)C2O)CC2OC(O)(CC(O)CC(O)C(O)CCC(O)CC(O)CC(=O)OC(C)C(C)C1O)CC(O)C2C(=O)O (stereo not drawn) [Amphotericin B],0.886,1.85,0.923,1.53
CC(=O)Oc1cc2c(s1)CCN(C(C(=O)C1CC1)c1ccccc1F)C2 (stereo not drawn) [Prasugrel],1.75,2.93,0.297,0.918
CNCC(O)C(O)C(O)C(O)CO (stereo not drawn) [Meglumine],0.764,0.676,0.743,0.465
COC(=O)Nc1nc2ccc(S(=O)c3ccccc3)cc2[nH]1 (stereo not drawn) [Oxfendazole],0.794,1.68,0.7,2.24

Compound,NF-kB reporter (A549-Dual [1]; irradiation: 8 Gy/4 fr),NF-kB reporter (A549-Dual [1]; irradiation: none),ISRE reporter (A549-Dual [2]; irradiation: 8 Gy/4 fr),ISRE reporter (A549-Dual [2]; irradiation: none)
Cl.Nc1cc(Cl)c(NC2=NCCN2)c(Cl)c1 [Apraclonidine HCl],0.624,0.572,0.633,0.449
CC(=O)[N]([Na])S(=O)(=O)c1ccc(N)cc1.O [Sulfacetamide sodium salt hydrate],0.911,1.05,0.846,0.78
CC1CN(CC(Cc2ccccc2)C(=O)NCC(=O)O)CCC1(C)c1cccc(O)c1.O.O (stereo not drawn) [Alvimopan dihydrate],0.655,0.579,0.642,0.468
CN1CCCCC1CCN1c2ccccc2Sc2ccc(S(C)=O)cc21.O=S(=O)(O)c1ccccc1 (stereo not drawn) [Mesoridazine Besylate],1.45,0.888,1.52,1.16
COc1ccc(CN(CCN(C)C)c2ccccn2)cc1.O=C(O)/C=C\C(=O)O [Pyrilamine Maleate],1.06,0.8,0.896,0.558
"CC1(C)C2CCC1(C)C(O)C2 (single isomer, unassigned; (+)) [(+)-Borneol]",1.05,0.727,0.864,0.528
N=c1cc(N2CCCCC2)nc(N)n1OS(=O)(=O)O [Minoxidil sulphate],1.46,0.754,1.62,0.916
Nc1nc(O)c2nc(O)cnc2n1.O [Xanthopterin Hydrate],1.3,0.656,1.33,0.595
CC(=O)OCC(COC(C)=O)OC(C)=O [Triacetin],0.941,1.1,0.837,0.882
CCC1=C(C)CN(C(=O)NCCc2ccc(S(=O)(=O)NC(=O)NC3CCC(C)CC3)cc2)C1=O (stereo not drawn) [Glimepiride],0.757,0.867,0.767,0.844
CC(C)(C)c1cc(C(C)(C)C)c(NC(=O)c2c[nH]c3ccccc3c2=O)cc1O [Ivacaftor (VX-770)],0.917,1.3,0.871,1.4
COc1ccc(C2OCC3C(c4ccc5c(c4)OCO5)OCC23)cc1OC (stereo not drawn) [Fargesin],0.721,0.734,0.634,0.536
Cc1ccccc1N1CCN(CCc2nnc3n2CCCC3)CC1.Cl [Dapiprazole Hydrochloride],0.995,1.38,0.681,0.719
O=C(O)c1ccc2ccccc2c1O.OCc1cc(C(O)CNCCCCCCOCCCCc2ccccc2)ccc1O (stereo not drawn) [Salmeterol Xinafoate],0.57,0.72,0.665,0.715
COc1ccc(C(=O)CC(=O)c2ccc(C(C)(C)C)cc2)cc1 [Avobenzone],0.667,0.504,0.701,0.54
CCCCOC(=O)CCCCCCCCC(=O)OCCCC [Dibutyl sebacate],0.84,0.745,0.749,0.529
CC1(O)CCC(C(C)(C)O)CC1.O (stereo not drawn) [Terpin hydrate],0.96,1.3,1.09,0.877
CCCc1nn(C)c2c(=O)[nH]c(-c3cc(S(=O)(=O)N4CCN(C)CC4)ccc3OCC)nc12.CS(=O)(=O)O [Sildenafil Mesylate],0.8,0.976,0.867,0.858
CCCCCCCCCCCCCCCC(=O)OC [Methyl palmitate],0.69,0.823,0.64,0.661
COC(=O)C1=C(C)NC(C)=C(C(=O)OCCN2CCN(C(c3ccccc3)c3ccccc3)CC2)C1c1cccc([N+](=O)[O-])c1 (stereo not drawn) [Manidipine],0.76,1.21,0.775,0.934
"Cc1cc(=O)oc2cc(O)cc(O)c12 [5,7-Dihydroxy-4-methylcoumarin]",0.791,0.751,0.573,0.382
O=C(C1CCCCC1)N1CC(=O)N2CCc3ccccc3C2C1 (stereo not drawn) [Praziquantel],0.523,1.14,0.53,0.895
COc1cc2c(cc1O)CCC1C2CCC2(C)C(O)CCC12 (stereo not drawn) [2-Methoxyestradiol (2-MeOE2)],0.706,1.28,0.287,1.44
CCOc1ccc2ccccc2c1C(=O)NC1C(=O)N2C1SC(C)(C)C2C(=O)[O][Na].O (stereo not drawn) [Nafcillin Sodium],0.634,1.48,0.482,0.956
CC1(C)OCC(COC(=O)CCc2ccc(OCC(O)CNCCNC(=O)N3CCOCC3)cc2)O1.Cl (stereo not drawn) [Landiolol hydrochloride],1.44,0.936,0.879,0.886
CCCN(CCC)S(=O)(=O)c1ccc(C(=O)O)cc1 [Probenecid],0.913,0.673,0.742,0.664
